# According to the supplement of paper PMC8728848:
# Some of the results follow.
# Experiments:
# Experiment in all cases: glycan array binding signal (z-score within array); higher = stronger binding
# Settings in all cases: glycan notation: IUPAC condensed, linker removed
# [1] = target: Neu5Ac(a2-3)Gal(b1-4)GlcNAc(b1-6)[Gal(b1-3)]GalNAc
# Procedure, shortened: (§1)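 Glycan array binding is given as a within-array Z-score, which can be read as non-binding when negative. The arrays, 3228 of them, came from the Consortium for Functional Glycomics database and were retained only where the protein sequence was available. Z-scores were averaged across arrays of the same protein sequence at different concentrations or buffers and across linkers.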
# [2] = target: Neu5Ac(a2-3)Gal(b1-4)GlcNAc(b1-6)[Neu5Ac(a2-3)Gal(b1-3)]GalNAc
# Procedure, shortened: as §1
# [3] = target: Neu5Ac(a2-3)Gal(b1-4)GlcNAc6S
# Procedure, shortened: as §1
# [4] = target: Neu5Ac(a2-3)Gal(b1-4)[Fuc(a1-3)]GlcNAc
# Procedure, shortened: as §1
# [5] = target: Neu5Ac(a2-3)Gal(b1-4)[Fuc(a1-3)]GlcNAc(b1-2)Man
# Procedure, shortened: as §1
# [6] = target: Neu5Ac(a2-3)Gal(b1-4)[Fuc(a1-3)]GlcNAc(b1-3)Gal
# Procedure, shortened: as §1
# [7] = target: Neu5Ac(a2-3)Gal(b1-4)[Fuc(a1-3)]GlcNAc(b1-3)Gal(b1-4)GlcNAc
# Procedure, shortened: as §1
# [8] = target: Neu5Ac(a2-3)Gal(b1-4)[Fuc(a1-3)]GlcNAc(b1-3)Gal(b1-4)[Fuc(a1-3)]GlcNAc(b1-3)Gal(b1-4)[Fuc(a1-3)]GlcNAc
# Procedure, shortened: as §1
# [9] = target: Neu5Ac(a2-3)Gal(b1-4)[Fuc(a1-3)]GlcNAc(b1-3)GalNAc
# Procedure, shortened: as §1
# [10] = target: Neu5Ac(a2-3)Gal(b1-4)[Fuc(a1-3)]GlcNAc(b1-6)[Gal(b1-3)]GalNAc
# Procedure, shortened: as §1
# [11] = target: Neu5Ac(a2-3)Gal(b1-4)[Fuc(a1-3)]GlcNAc(b1-6)[Neu5Ac(a2-3)Gal(b1-3)]GalNAc
# Procedure, shortened: as §1
# [12] = target: Neu5Ac(a2-3)Gal(b1-4)[Fuc(a1-3)]GlcNAc6S
# Procedure, shortened: as §1
# [13] = target: Neu5Ac(a2-3)Gal6S(b1-4)GlcNAc
# Procedure, shortened: as §1
# [14] = target: Neu5Ac(a2-3)Gal6S(b1-4)[Fuc(a1-3)]GlcNAc
# Procedure, shortened: as §1
# Neu5Ac(a2-3)GalNAc = target: Neu5Ac(a2-3)GalNAc
# Procedure, shortened: as §1
# [15] = target: Neu5Ac(a2-3)GalNAc(b1-4)GlcNAc
# Procedure, shortened: as §1
# [16] = target: Neu5Ac(a2-3)[GalNAc(b1-4)]Gal(b1-4)Glc
# Procedure, shortened: as §1
# [17] = target: Neu5Ac(a2-3)[GalNAc(b1-4)]Gal(b1-4)GlcNAc
# Procedure, shortened: as §1
# [18] = target: Neu5Ac(a2-3)[GalNAc(b1-4)]Gal(b1-4)GlcNAc(b1-3)GalNAc
# Procedure, shortened: as §1
# [19] = target: Neu5Ac(a2-3)[Neu5Ac(a2-6)]GalNAc
# Procedure, shortened: as §1
# Neu5Ac(a2-6)Gal = target: Neu5Ac(a2-6)Gal
# Procedure, shortened: as §1
# [20] = target: Neu5Ac(a2-6)Gal(b1-3)GlcNAc(b1-3)[Gal(b1-4)GlcNAc(b1-6)]Gal(b1-4)Glc
# Procedure, shortened: as §1
# Neu5Ac(a2-6)Gal(b1-4)Glc = target: Neu5Ac(a2-6)Gal(b1-4)Glc
# Procedure, shortened: as §1
# [21] = target: Neu5Ac(a2-6)Gal(b1-4)GlcNAc
# Procedure, shortened: as §1
# [22] = target: Neu5Ac(a2-6)Gal(b1-4)GlcNAc(b1-2)Man
# Procedure, shortened: as §1
# [23] = target: Neu5Ac(a2-6)Gal(b1-4)GlcNAc(b1-2)Man(a1-3)Man(b1-4)GlcNAc(b1-4)GlcNAc
# Procedure, shortened: as §1
# [24] = target: Neu5Ac(a2-6)Gal(b1-4)GlcNAc(b1-2)Man(a1-3)[Gal(b1-4)GlcNAc(b1-2)Man(a1-6)]Man(b1-4)GlcNAc(b1-4)GlcNAc
# Procedure, shortened: as §1
# [25] = target: Neu5Ac(a2-6)Gal(b1-4)GlcNAc(b1-2)Man(a1-3)[GlcNAc(b1-2)Man(a1-6)]Man(b1-4)GlcNAc(b1-4)GlcNAc
# Procedure, shortened: as §1
# [26] = target: Neu5Ac(a2-6)Gal(b1-4)GlcNAc(b1-2)Man(a1-3)[GlcNAc(b1-4)][Neu5Ac(a2-6)Gal(b1-4)GlcNAc(b1-2)Man(a1-6)]Man(b1-4)GlcNAc(b1-4)GlcNAc
# Procedure, shortened: as §1
# [27] = target: Neu5Ac(a2-6)Gal(b1-4)GlcNAc(b1-2)Man(a1-3)[Man(a1-6)]Man(b1-4)GlcNAc(b1-4)GlcNAc
# Procedure, shortened: as §1
# [28] = target: Neu5Ac(a2-6)Gal(b1-4)GlcNAc(b1-2)Man(a1-3)[Neu5Ac(a2-3)Gal(b1-4)GlcNAc(b1-2)Man(a1-6)]Man(b1-4)GlcNAc(b1-4)GlcNAc
# Procedure, shortened: as §1
# [29] = target: Neu5Ac(a2-6)Gal(b1-4)GlcNAc(b1-2)Man(a1-3)[Neu5Ac(a2-6)Gal(b1-4)GlcNAc(b1-2)Man(a1-6)]Man(b1-4)GlcNAc(b1-4)GlcNAc
# Procedure, shortened: as §1
# [30] = target: Neu5Ac(a2-6)Gal(b1-4)GlcNAc(b1-2)Man(a1-3)[Neu5Ac(a2-6)Gal(b1-4)GlcNAc(b1-2)Man(a1-6)]Man(b1-4)GlcNAc(b1-4)[Fuc(a1-6)]GlcNAc
# Procedure, shortened: as §1
# [31] = target: Neu5Ac(a2-6)Gal(b1-4)GlcNAc(b1-2)Man(a1-6)Man(b1-4)GlcNAc(b1-4)GlcNAc
# Procedure, shortened: as §1
# [32] = target: Neu5Ac(a2-6)Gal(b1-4)GlcNAc(b1-2)Man(a1-6)[Gal(b1-4)GlcNAc(b1-2)Man(a1-3)]Man(b1-4)GlcNAc(b1-4)GlcNAc
# Procedure, shortened: as §1
# [33] = target: Neu5Ac(a2-6)Gal(b1-4)GlcNAc(b1-2)Man(a1-6)[GlcNAc(b1-2)Man(a1-3)]Man(b1-4)GlcNAc(b1-4)GlcNAc
# Procedure, shortened: as §1
# [34] = target: Neu5Ac(a2-6)Gal(b1-4)GlcNAc(b1-2)Man(a1-6)[Man(a1-3)]Man(b1-4)GlcNAc(b1-4)GlcNAc
# Procedure, shortened: as §1
# [35] = target: Neu5Ac(a2-6)Gal(b1-4)GlcNAc(b1-2)[Neu5Ac(a2-6)Gal(b1-4)GlcNAc(b1-4)]Man(a1-3)[GlcNAc(b1-4)][Neu5Ac(a2-6)Gal(b1-4)GlcNAc(b1-2)[Neu5Ac(a2-6)Gal(b1-4)GlcNAc(b1-6)]Man(a1-6)]Man(b1-4)GlcNAc(b1-4)GlcNAc
# Procedure, shortened: as §1
# [36] = target: Neu5Ac(a2-6)Gal(b1-4)GlcNAc(b1-2)[Neu5Ac(a2-6)Gal(b1-4)GlcNAc(b1-4)]Man(a1-3)[GlcNAc(b1-4)][Neu5Ac(a2-6)Gal(b1-4)GlcNAc(b1-4)Man(a1-6)]Man(b1-4)GlcNAc(b1-4)GlcNAc
# Procedure, shortened: as §1
# [37] = target: Neu5Ac(a2-6)Gal(b1-4)GlcNAc(b1-2)[Neu5Ac(a2-6)Gal(b1-4)GlcNAc(b1-6)]Man(a1-6)[Neu5Ac(a2-6)Gal(b1-4)GlcNAc(b1-2)Man(a1-3)][GlcNAc(b1-4)]Man(b1-4)GlcNAc(b1-4)GlcNAc
# Procedure, shortened: as §1
# [38] = target: Neu5Ac(a2-6)Gal(b1-4)GlcNAc(b1-3)Gal(b1-3)GlcNAc
# Procedure, shortened: as §1
# [39] = target: Neu5Ac(a2-6)Gal(b1-4)GlcNAc(b1-3)Gal(b1-4)GlcNAc
# Procedure, shortened: as §1
# [40] = target: Neu5Ac(a2-6)Gal(b1-4)GlcNAc(b1-3)Gal(b1-4)GlcNAc(b1-2)Man(a1-3)[Neu5Ac(a2-6)Gal(b1-4)GlcNAc(b1-3)Gal(b1-4)GlcNAc(b1-2)Man(a1-6)]GalNAc
# Procedure, shortened: as §1
# [41] = target: Neu5Ac(a2-6)Gal(b1-4)GlcNAc(b1-3)Gal(b1-4)GlcNAc(b1-3)Gal(b1-4)GlcNAc
# Procedure, shortened: as §1
# [42] = target: Neu5Ac(a2-6)Gal(b1-4)GlcNAc(b1-3)Gal(b1-4)GlcNAc(b1-3)Gal(b1-4)GlcNAc(b1-2)Man(a1-3)[Neu5Ac(a2-6)Gal(b1-4)GlcNAc(b1-3)Gal(b1-4)GlcNAc(b1-3)Gal(b1-4)GlcNAc(b1-2)Man(a1-6)]GalNAc
# Procedure, shortened: as §1
# [43] = target: Neu5Ac(a2-6)Gal(b1-4)GlcNAc(b1-3)Gal(b1-4)GlcNAc(b1-3)GalNAc
# Procedure, shortened: as §1
binder,measurement,setting,value
"OVGAL11 (Ovis aries), AAF64320 (protein) MDSLPNPYLQSVSLTVCYMVKIKANLLSAFGKNPELQVDFGTGTGQGGNIPFRFWYCDGMVVMNTFTDGSWQKEEKVLTDAFVPGQPFELQFLVLEKEYQVFVKNKPICQFAHRLPLQSVKMLDVRGDIVLTSVDTL",glycan array binding signal (z-score),[1],-0.11
same,glycan array binding signal (z-score),[2],-0.058
same,glycan array binding signal (z-score),[3],-0.299
same,glycan array binding signal (z-score),[4],-0.028
same,glycan array binding signal (z-score),[5],-0.13
same,glycan array binding signal (z-score),[6],-0.278
same,glycan array binding signal (z-score),[7],-0.217
same,glycan array binding signal (z-score),[8],-0.361
same,glycan array binding signal (z-score),[9],-0.056
same,glycan array binding signal (z-score),[10],-0.057
same,glycan array binding signal (z-score),[11],-0.021
same,glycan array binding signal (z-score),[12],-0.298
same,glycan array binding signal (z-score),[13],-0.168
same,glycan array binding signal (z-score),[14],-0.219
same,glycan array binding signal (z-score),Neu5Ac(a2-3)GalNAc,-0.207
same,glycan array binding signal (z-score),[15],-0.233
same,glycan array binding signal (z-score),[16],-0.126
same,glycan array binding signal (z-score),[17],-0.082
same,glycan array binding signal (z-score),[18],-0.043
same,glycan array binding signal (z-score),[19],-0.212
same,glycan array binding signal (z-score),Neu5Ac(a2-6)Gal,-0.053
same,glycan array binding signal (z-score),[20],-0.098
same,glycan array binding signal (z-score),Neu5Ac(a2-6)Gal(b1-4)Glc,-0.091
same,glycan array binding signal (z-score),[21],-0.149
same,glycan array binding signal (z-score),[22],-0.114
same,glycan array binding signal (z-score),[23],-0.056
same,glycan array binding signal (z-score),[24],-0.122
same,glycan array binding signal (z-score),[25],-0.107
same,glycan array binding signal (z-score),[26],-0.104
same,glycan array binding signal (z-score),[27],-0.073
same,glycan array binding signal (z-score),[28],-0.08
same,glycan array binding signal (z-score),[29],-0.138
same,glycan array binding signal (z-score),[30],-0.063
same,glycan array binding signal (z-score),[31],-0.084
same,glycan array binding signal (z-score),[32],-0.084
same,glycan array binding signal (z-score),[33],-0.051
same,glycan array binding signal (z-score),[34],-0.022
same,glycan array binding signal (z-score),[35],-0.059
same,glycan array binding signal (z-score),[36],-0.105
same,glycan array binding signal (z-score),[37],-0.121
same,glycan array binding signal (z-score),[38],-0.089
same,glycan array binding signal (z-score),[39],-0.125
same,glycan array binding signal (z-score),[40],-0.062
same,glycan array binding signal (z-score),[41],-0.148
same,glycan array binding signal (z-score),[42],-0.084
same,glycan array binding signal (z-score),[43],-0.065
